About 530 (0.16%) of roughly 340,000 compounds were called active. The inconclusive results got no clear call from the source; some entries with a clear call stand among them for comparison. Rule as the data show it: active = activity change below about -80%; inconclusive = between about -30% and that limit; inactive = weaker than that.
assay: Small Molecules that selectively kill Giardia lamblia: qHTS; conditions: Giardia lamblia trophozoite viability; at 7.66 µM; active compounds read low;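 also: parasites exposed to compound for two days anaerobically before the ATP read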
Description: Giardia lamblia is a human pathogen afflicting impoverished nations, and the most common cause of outbreaks of diarrhea in the United States. Giardia has been classified by the CDC as a category B bioterrorism organism. The favored anti giardiasis drugs in the US are metronidazole or tinidazole, compounds that have undesirable side effects. Moreover, increasing resistance to drug regimes and recurrence are a concern. It is thus clear that alternative drug treatments are needed.
In a collaboration between the University of Maryland, College Park and the NIH Chemical Genomics Center, a bioluminescence Giardia viability assay based on the trophozoites' ATP content was developed. This assay is suitable for high throughput screening, and miniaturized the assay for compound screening in 1536-well plates. The goal of the project is to screen the Molecular Libraries Small Molecule Repository (MLSMR) for compounds that selectively kill Giardia trophozoites.
NIH Chemical Genomics Center [NCGC]
NIH Molecular Libraries Probe Centers Network [MLPCN]
Assay Submitter (PI): Osnat Herzberg, University of Maryland, College Park, MD.
1. Dispense 2 ul/well media
2. Dispense 23 nl/well compounds
3. Dispense 4 ul/well Giardia trophozoites at a concentration of 100 cells/well
4. Incubate 48 hrs at 37 deg C anaerobically
5. Dispense 4 ul/well ATPLite 1-Step Luminescence assay kit
6. Incubate 15-30 min at room temperature
7. Read luminescence signal on ViewLux plate reader
% is scaled to controls: 0 for no effect and ±100 for the full control effect.

| Compound | activity change |
| --- | --- |
| CN(C)c1ccc(-c2ccc3c(=O)c4ccccc4n(C)c3c2)cn1 | inconclusive: -30.9% [inhibitor] |
| O=C(NC(=O)c1ccccc1O)c1ccc2c(c1)CCO2 | inconclusive: -47.5% [inhibitor] |
| COc1ccc(NC(=O)CSc2nnc(Cc3cccs3)n2-c2ccc(C)cc2)cc1 | inactive: -10% |
| COc1cc(CC(=O)NCC2CCCCC2)cc(OC)c1OC | inconclusive: -35.2% [inhibitor] |
| CC(C)(C)OC(=O)C[C@@H]1C/C=C\C[C@@H](CC(=O)NCCO)C(=O)NC[C@@H](c2ccccc2)OC1=O | inactive: -19.1% |
| CCCc1cc(C(=O)Nc2cccc3ccccc23)n(C)n1 | inactive: 2.4% |
| COc1ccc(Cl)cc1C(=O)NNC(=S)NC(=O)/C=C/c1ccco1 | inconclusive: -33.8% [inhibitor] |
| CC(C)Sc1cc(Cl)nc(NC(=O)Nc2ccccc2)n1 | inactive: -1.81% |
| O=C(Cc1ccc(Cl)cc1)Nc1ccccc1Sc1ccccc1 | inconclusive: -31.6% [inhibitor] |
| Cc1c(CNCCc2ccccc2Cl)c(C(=O)O)c(C)n1-c1ccccc1 | inconclusive: -35.1% [inhibitor] |
| C[C@@H]1CN([C@H](C)CO)C(=O)c2cc(NC(=O)Nc3ccc4c(c3)OCO4)ccc2O[C@H]1CN(C)Cc1ccncc1 | inconclusive: -45.7% [inhibitor] |
| CCOc1ccc2oc(C(=O)N3CC(C)OC(C)C3)c(C)c2c1 (stereo not given) | inactive: -2.08% |
| FC(F)(F)c1ccc2c(c1)N1CCCC1CN2 (stereo not given) | active: -87.1% |
| CN(C)/C(=N\S(=O)(=O)c1ccc(F)cc1)c1ccccc1 | inconclusive: -32.7% [inhibitor] |
| Cc1nc(SCc2ccc(O)c([N+](=O)[O-])c2)c([N+](=O)[O-])[nH]1 | inactive: -7.14% |
| COc1cccc2c1C(=O)c1c(O)c3c(c(O)c1C2=O)C[C@@](O)(C(C)=O)C[C@@H]3O[C@H]1C[C@H](N)[C@H](O)[C@H](C)O1 | inactive: 8.6% |
| CCn1cc(CNC(=O)C2CCC(=O)N(CCc3cccc(F)c3)C2)cn1 (stereo not given) | inconclusive: -30.8% [inhibitor] |
| O=C(O)CCN1C(=O)c2ccc(NC(=O)COc3ccccc3)cc2C1=O | inconclusive: -31.5% [inhibitor] |
| O=C(/C=C/c1cccc([N+](=O)[O-])c1)Nc1ccccn1 | inconclusive: -31.9% [inhibitor] |
| Cc1ccc(NC(=O)CSc2ccc3nnc(-c4cccnc4)n3n2)cc1 | inconclusive: -33.7% [inhibitor] |
| Cc1ccc(NC(=S)N(CCN(C)C)C(C)c2ccco2)cc1Cl (stereo not given) | inconclusive: -30.8% [inhibitor] |
| S=c1[nH]nc(COc2ccc(Cl)cc2)n1-c1ccccc1 | inactive: -2.59% |
| COc1ccc2nc(-c3ccccc3)cc(C(=O)OCC(=O)NC3CC3)c2c1 | inactive: -10.4% |
| COCCNC(=O)CN1C(=O)NC2(CCOc3ccccc32)C1=O (stereo not given) | inactive: -7.96% |
| CN(CC(=O)NCC1CCCCC1)CC(=O)Nc1ccc(F)cc1 | inconclusive: -32.1% [inhibitor] |

| Compound | activity change |
| --- | --- |
| Cc1cc(=O)[nH]c(SCC(=O)Nc2ccc(Cl)cn2)n1 | inconclusive: -36.8% [inhibitor] |
| COc1ccc(C(=O)N2CCN(C)C(=O)[C@@H]2C)cc1OC1CCN(C(C)=O)CC1 | inactive: 6.53% |
| COCc1c(C(=O)NCCc2ccc(OC(F)F)cc2)oc2ccccc12 | inconclusive: -38.4% [inhibitor] |
| O=C(CSc1nc2cc(Cl)ccc2s1)NC1CCCc2ccccc21 (stereo not given) | inactive: 14.1% |
| Cc1ccc(CNC(=O)COC(=O)c2cccc(S(=O)(=O)N3CCCCC3)c2)cc1 | inconclusive: -32.5% [inhibitor] |
| CN(C)CCCNC(=O)C(=O)Nc1cc2c3c(c1)CC(=O)N3CCC2 | inconclusive: -33.8% [inhibitor] |
| O=C(Cc1csc(Nc2nc(=S)[nH]c3ccccc23)n1)NCCCN1CCN(c2ccccc2F)CC1 | inconclusive: -51.5% [inhibitor] |
| CC(=O)N(/N=C/c1ccc([N+](=O)[O-])o1)c1nc2ccccc2c(=O)n1-c1ccccc1 | inconclusive: -77.6% [inhibitor] |
| CC1C[N+](=C2C=C(N3CCOCC3)CC(C)(C)C2)CC(C)O1 (stereo not given) | inconclusive: -43.1% [inhibitor] |
| N#Cc1c(NC(=O)c2ccc([N+](=O)[O-])o2)sc2c1CCC2 | active: -94.2% |
| CCc1noc(C)c1C(=O)OCC(=O)NC(C)c1ccccc1 (stereo not given) | inconclusive: -31.9% [inhibitor] |
| CCc1nnc(NC(=O)CSc2nnc(-c3ccco3)o2)s1 | inactive: -26.6% |
| CCOC(=O)CC[C@H](NC(=O)Cn1cnc2c(NCc3ccccc3)ncnc21)C(=O)OCC | inactive: 20.8% |
| CCO[C@@H]1OC(C(=O)NCc2ccccc2)=C[C@H](C)[C@H]1CCCO | inconclusive: -39.6% [inhibitor] |
| CCc1nc(N2CCCC(C)C2)c2oc3ccccc3c2n1 (stereo not given) | inactive: -0.524% |
| O=C(O)C1(P(=O)(c2ccc(Cl)cc2)c2ccc(Cl)cc2)CC1 | inconclusive: -30.6% [inhibitor] |
| Cc1ccc(-c2nnc(-c3ccccc3Br)o2)cc1 | inconclusive: -36% [inhibitor] |
| COc1ccc(C2=Nn3c([n+](C)c4ccccc43)SC2)cc1 | inactive: 3.65% |
| Cc1cs/c(=N\N=C2CCCCC2)n1Cc1ccco1 | inconclusive: -31% [inhibitor] |
| CCOCC(=O)Nc1ccc(S(=O)(=O)N2CCOCC2)cc1 | inconclusive: -30.1% [inhibitor] |
| C/C(=N/NC(=O)c1ccc(Cl)s1)c1cccnc1 | inactive: -6.57% |
| COCCn1c(C)cc(C(=O)COC(=O)c2ccc(Cl)c(S(N)(=O)=O)c2)c1C | inconclusive: -64.2% [inhibitor] |
| O=C(/C=C/c1cc(Br)ccc1O)c1ccco1 | inconclusive: -35.6% [inhibitor] |
| c1ccc(-c2cc3c(N4CCCCC4)ncnc3s2)cc1 | inconclusive: -40.6% [inhibitor] |
| CCOc1ccc(S(=O)(=O)NCCc2cn3ccccc3n2)cc1 | inactive: 30.8% |
